# Measurements: PubChem BioAssay AID686971 (National Center for Advancing Translational Sciences (NCATS), 2013)
# The campaign covered roughly 360,000 compounds. About 7,500 (2.1%) were called active. Inconclusive means that the source gave no clear call. Such entries were picked first, then a sample of the others. Calls come from the whole dose curve; as a rule, active = well fitted cell-killing curve with a large enough effect; inconclusive = small, poorly fitted or top-dose-only effect, or effect the other way, or another doubt; inactive = no such curve, though single readings can be large or run the other way. Potencies of inconclusive entries are left out as doubtful fits.
# Experiment: qHTS for induction of synthetic lethality in tumor cells producing 2HG: qHTS for the HT-1080-IDH1KD cell line;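 for activity, negative = toxicity: 0% = DMSO wells and -100% = cell-free medium wells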
# Conditions: HT-1080 IDH1 knockdown viability, ATP luminescence, 48 h; activity, negative = toxicity: at 46.1 µM (top of the series) unless noted
# Method in brief: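 HT-1080-IDH1KD cells (IDH1 knocked down), 750/well in RPMI with 5% FBS, treated with compound 48 h at 37 degrees C. Viability by CellTiter-Glo luminescence, normalised to DMSO and no-cell wells; concentration-response curves classed.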
# Potency is the fitted concentration of half-maximal effect; tags give direction and shape of the fitted curve.
Compound,Potency,"activity, negative = toxicity"
O=C1CC(c2ccc(F)cc2)c2cc3c(cc2N1)CCC3 (stereo not drawn),"inconclusive [cytotoxic, single point]",–
CCOc1ccc(S(=O)(=O)Nc2cccc(OC)c2)cc1,active: 10 µM,–
O=C(NCc1cccs1)c1nc2c(nnn2Cc2ccccc2Cl)c(=O)[nH]1,active: 3.26 µM,–
Cc1c(/C=N\NC(=O)c2csc3ccccc23)cnn1C,"inconclusive [cytotoxic, single point]",–
O=c1[nH]c2ccc(S(=O)(=O)Nc3ccc(Br)cc3)cc2[nH]1,"inconclusive [cytotoxic, single point]",–
COc1ccc(O)c(/C=N/NC(=O)c2c(C)nnn2-c2nonc2N)c1,"inconclusive [cytotoxic, full curve, poor fit]",–
COc1cc(/C=N/Nc2nc(Nc3ccc(C)cc3)nc(-n3nc(C)cc3C)n2)cc(OC)c1OC,active: 2.82 µM,–
O=C(NC1(Cc2ccccc2)CCN(Cc2ccc(-c3ccccc3)cc2)C1=O)c1ccccc1 (stereo not drawn),"inconclusive [cytotoxic, single point]",–
CC(C)COC(=O)c1cccc2c1-c1ccccc1/C2=N\O,"inconclusive [cytotoxic, single point]",–
CCC(C)Nc1c2c(nc3c(-c4ccccc4)c(C)nn13)CCC2 (stereo not drawn),"inconclusive [cytotoxic, single point]",–
Cc1ccc(NC(=O)CCl)cc1S(=O)(=O)N1CCCCCC1,active: 8.2 µM,–
C[C@H](NC(=O)c1ccc(Cl)cc1)C(=O)OCn1nnc2ccccc2c1=O,inactive,–
CN1CCCC(n2nc(Cc3ccc(Cl)cc3)c3ccccc3c2=O)CC1 (stereo not drawn),active: 4.11 µM,–
COc1ccc(-c2c([C@H]3[C@@H]4C=CCC[C@@]4(C)C(=O)N3Cc3ccccc3)ccc3ccccc23)cc1OC,"inconclusive [cytotoxic, single point]",–
O=C(Nc1ccc(Br)cc1)c1cccc(S(=O)(=O)Nc2cnc3ccccc3c2)c1,"inconclusive [cytotoxic, partial curve]",–
Clc1nssc1=Nc1ccc(Br)cc1,"inconclusive [cytotoxic, single point]",–
O=C(Nc1ccccc1C(=O)Nc1nccs1)c1ccccc1,"inconclusive [cytotoxic, single point]",–
CN(C)S(=O)(=O)c1ccc(NC(=O)CSc2nc3ccccc3n2-c2ccccc2)cc1,inactive,–
CC(=O)Nc1ncc(Cc2cccc(Cl)c2)s1,"inconclusive [cytotoxic, partial curve]",–
COc1cccc(-n2c(SCC(=O)NC3CCCCC3)nc3n[nH]c(C)c3c2=N)c1,active: 18.4 µM,–
COc1cc(C(=O)COC(=O)c2c(C)noc2C)cc(OC)c1OC,inactive,–
O=C(CSC1=NC2(CCCCCC2)N=C1c1ccccc1)Nc1ccc2c(c1)OCCO2,"inconclusive [cytotoxic, single point]",–

Compound,Potency,"activity, negative = toxicity"
CN1CCC2(CC1)Nc1nc(SCc3ccc(Cl)cc3)nn1C1=C2CN(C)CC1,active: 20.6 µM,–
Cc1ccc(CN2CCC(c3cc(-c4ccc(Cl)cc4)n[nH]3)CC2)cc1,–,inconclusive: -17.3% [cytotoxic]
C[C@@H]1CN([C@H](C)CO)C(=O)c2cc(NC(=O)Nc3ccc(C(F)(F)F)cc3)ccc2O[C@H]1CN(C)C(=O)Nc1ccc(F)cc1,"inconclusive [cytotoxic, single point]",–
O=C(C[C@H]1C/C=C\CC[C@H](Cc2ccc(F)cc2)C(=O)O[C@H](c2ccccc2)CNC1=O)N[C@H](CO)Cc1ccccc1,"inconclusive [cytotoxic, single point]",–
O=C(Nc1ccccc1)c1ccc(-c2ccccc2C(F)(F)F)o1,inactive,–
CCc1nc2ccc(C(=O)NCc3ccc4c(c3)OCO4)cn2c1N(CCC(C)C)CCN(C)C,"inconclusive [cytotoxic, single point]",–
COc1ccc(C(=O)NNC(=S)NC(=O)c2ccc(Br)o2)cc1OC,"inconclusive [cytotoxic, full curve]",–
Cn1ccc2c(-c3ccc4c(c3)OCCO4)cc3c(c21)C1CCC3O1 (stereo not drawn),inactive,–
CCc1ccc(-c2csc(NC(=O)C3CCCO3)c2C(=O)OC(C)C)cc1 (stereo not drawn),"inconclusive [cytotoxic, single point]",–
CC1(C(=O)Nc2cccc(Oc3ccccc3)c2)CCN1Cc1cccc2c1OCO2 (stereo not drawn),"inconclusive [cytotoxic, partial curve]",–
O=C(COc1ccccc1O)NNc1ccccc1,active: 3.26 µM,–
Cc1cccc(Nc2nnc(SCC(=O)NC3CCCc4ccccc43)s2)c1 (stereo not drawn),"inconclusive [cytotoxic, single point]",–
CCCCCCOC(=O)C(C#N)c1nc2ccccc2nc1N1CCN(C)CC1 (stereo not drawn),"inconclusive [cytotoxic, single point]",–
Cc1cccc(OCC(=O)Nc2ccc3oc(=O)ccc3c2)c1,"inconclusive [rising, partial curve]",–
CCOc1cc(CNCc2cc(OC)cc(OC)c2)ccc1OC,"inconclusive [cytotoxic, partial curve]",–
C=Cc1ccc(Cn2c(C)c(C(=O)NCc3cccc(C)c3)sc2=O)cc1,"inconclusive [cytotoxic, single point]",–
CCCCn1nnnc1C(c1ccccc1)N1CCN(c2c(Cl)cncc2Cl)CC1 (stereo not drawn),"inconclusive [cytotoxic, single point]",–
CCOC(=O)c1nnc2cc(-c3ccccc3)nn2c1C,–,inactive: 7.04% [at 9.24 µM]
CC1CCN(S(=O)(=O)c2ccc3c(c2)N(CC(=O)NCCCN(Cc2ccccc2)C(C)C)C(=O)CO3)CC1,inactive,–
Cc1ccnc(NC(=O)C(C)N2C(=O)c3ccccc3S2(=O)=O)c1 (stereo not drawn),"inconclusive [rising, single point]",–
Cc1[nH]n(-c2ccccc2)c(=O)c1/C=N/O,"inconclusive [cytotoxic, single point]",–
